Data on 3 molecules can be found in patent US20240254195A1.

Assay in all cases: cell-based or functional assay
The target in test [1] is T1, GDF-11 (UniProt O95390).
T1 sequence (looked up): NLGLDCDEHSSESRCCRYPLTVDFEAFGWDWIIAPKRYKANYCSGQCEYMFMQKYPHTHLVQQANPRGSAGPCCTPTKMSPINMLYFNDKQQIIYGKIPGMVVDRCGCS

The target in test [2] is T2, BMP-9 (UniProt Q9UK05).
T2 sequence (looked up): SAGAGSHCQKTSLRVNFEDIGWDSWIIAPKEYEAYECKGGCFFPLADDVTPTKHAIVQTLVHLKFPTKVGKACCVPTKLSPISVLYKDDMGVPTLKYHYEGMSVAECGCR

Test [3] deals with T3, GDF-8 (UniProt O14793).
T3 sequence (looked up): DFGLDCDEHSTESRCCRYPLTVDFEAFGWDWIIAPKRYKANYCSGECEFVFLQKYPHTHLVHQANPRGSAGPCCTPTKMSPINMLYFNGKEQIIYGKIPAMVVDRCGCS

The target of test [4] is T4, activin B (UniProt P09529).
T4 sequence (looked up): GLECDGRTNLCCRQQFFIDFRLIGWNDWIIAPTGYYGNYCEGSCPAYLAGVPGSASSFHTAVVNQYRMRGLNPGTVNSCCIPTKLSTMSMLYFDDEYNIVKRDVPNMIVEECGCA

Test [5] concerns the target T5, BMP-10 (UniProt O95393).
T5 sequence (looked up): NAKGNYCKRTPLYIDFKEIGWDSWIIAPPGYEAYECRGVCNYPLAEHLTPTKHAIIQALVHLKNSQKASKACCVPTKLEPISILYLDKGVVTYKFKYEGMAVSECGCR

The target in test [6] is recombinant human activin A (human) (UniProt P08476).
Chain of UniProt P08476 (P08476 311-426 limits assumed): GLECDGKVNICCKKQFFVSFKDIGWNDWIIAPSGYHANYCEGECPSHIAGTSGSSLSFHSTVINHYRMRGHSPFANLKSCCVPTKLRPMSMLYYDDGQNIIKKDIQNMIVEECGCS

B1: P753 (Fc fusion)
chain: ETRECIYYNANWELERTNQSGLERCEGEQDKRLHCYASWRNSSGTIELVKKGCWLDDFNCYDRQECVAHEENPQVYFCCCEGNFCNERFTHLPEAGGPEVTYEPPPTGGGGSGGGGSGG[human IgG1 Fc and a few adjoining residues cut from this listing]
With B1, the GDF-11 IC50 in test [1] is 1.5 nM. In test [2], this molecule came in with a BMP-9 IC50 of 2.1 nM. In test [3], this molecule had a GDF-8 IC50 of 1.4 nM. The molecule also registered an Activin B IC50 in test [4] of 2.4 nM. This molecule yielded a BMP-10 IC50 in test [5] of 2.9 nM. In addition, in test [6], the Activin A IC50 worked out at 1.6 nM.

B2: P739 (Fc fusion)
chain: ETRECIYYNANWELERTNQSGLERCEEEQDKRLHCYASWRNSSGTIELVKKGCWLDDFNCYDRQECVATEENPQVYFCCCEGNFCNERFTHLPEAGGPEVTYEPPPTGGGGSGGGGSGG[human IgG1 Fc and a few adjoining residues cut from this listing]
For B2, the GDF-11 IC50 in test [1] amounted to 2.1 nM. In test [2], this molecule came in with a BMP-9 IC50 of 1.1 nM. The molecule further gave a GDF-8 IC50 in test [3] of 2 nM. Moreover, the Activin B IC50 in test [4] was determined as 6 nM. This molecule also returned a BMP-10 IC50 in test [5] of 4 nM. For the same molecule, the Activin A IC50 in test [6] was found to be 3.5 nM.

B3: P754 (Fc fusion)
chain: ETRECIYYNANWELERTNQSGLERCEGEQDKRLHCYASWRNSSGTIELVKKGCWLDDFNCYDRQECVAQEENPQVYFCCCEGNFCNERFTHLPEAGGPEVTYEPPPTGGGGSGGGGSGG[human IgG1 Fc and a few adjoining residues cut from this listing]
With B3, the GDF-11 IC50 in test [1] was 1.6 nM. The BMP-9 IC50 in test [2] was found to be 3.5 nM. Also, the Activin B IC50 in test [4] came to 2.1 nM. Besides, the BMP-10 IC50 in test [5] worked out at 2.5 nM. For the same molecule, the Activin A IC50 in test [6] stood at 1.5 nM.
